According to article PMC4336329 (PLoS ONE, 2015):
About 14,000 (4.5%) of roughly 310,000 compounds showed an effect of 50% or more. The effect is printed as a negative number. This is one part of the list.

biological target: human ether-à-go-go-related gene (hERG) potassium channel (human, UniProt Q12809); experiment: primary screen, population patch clamp on CHO cells stably expressing hERG
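Further: peak tail current of the secondary pulse compared with the same well before compound.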

Chain of human ether-à-go-go-related gene (hERG) potassium channel (Q12809 whole entry, looked up): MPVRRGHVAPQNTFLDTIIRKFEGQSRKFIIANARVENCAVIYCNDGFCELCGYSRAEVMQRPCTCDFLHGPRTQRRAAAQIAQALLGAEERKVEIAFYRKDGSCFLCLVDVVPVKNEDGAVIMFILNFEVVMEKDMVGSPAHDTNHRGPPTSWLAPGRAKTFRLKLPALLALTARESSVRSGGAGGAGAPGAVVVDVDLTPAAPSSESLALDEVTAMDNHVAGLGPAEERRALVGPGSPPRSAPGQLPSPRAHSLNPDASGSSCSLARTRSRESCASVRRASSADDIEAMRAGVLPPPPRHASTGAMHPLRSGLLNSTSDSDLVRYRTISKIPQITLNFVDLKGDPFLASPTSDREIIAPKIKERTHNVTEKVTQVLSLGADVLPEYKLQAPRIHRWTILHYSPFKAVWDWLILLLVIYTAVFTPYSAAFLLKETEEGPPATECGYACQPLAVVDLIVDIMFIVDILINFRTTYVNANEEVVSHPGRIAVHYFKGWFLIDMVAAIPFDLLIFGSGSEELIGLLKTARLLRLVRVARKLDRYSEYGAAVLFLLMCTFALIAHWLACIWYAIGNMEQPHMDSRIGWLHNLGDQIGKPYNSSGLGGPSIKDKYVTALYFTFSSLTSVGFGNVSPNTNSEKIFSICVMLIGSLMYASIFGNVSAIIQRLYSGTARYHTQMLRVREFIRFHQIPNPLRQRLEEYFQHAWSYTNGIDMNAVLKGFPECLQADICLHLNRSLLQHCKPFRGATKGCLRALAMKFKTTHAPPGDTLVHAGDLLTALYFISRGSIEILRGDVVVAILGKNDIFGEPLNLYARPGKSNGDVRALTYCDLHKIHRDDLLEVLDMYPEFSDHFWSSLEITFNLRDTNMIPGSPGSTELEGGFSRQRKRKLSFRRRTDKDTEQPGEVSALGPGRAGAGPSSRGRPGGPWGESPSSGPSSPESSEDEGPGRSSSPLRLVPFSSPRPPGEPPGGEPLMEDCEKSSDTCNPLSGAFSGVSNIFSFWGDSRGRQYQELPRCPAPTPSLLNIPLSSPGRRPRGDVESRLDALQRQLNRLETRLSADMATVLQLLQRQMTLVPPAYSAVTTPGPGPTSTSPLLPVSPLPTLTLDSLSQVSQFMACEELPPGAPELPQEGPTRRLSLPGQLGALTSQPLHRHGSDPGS

SMILES	hERG current change (%, negative = inhibition) at 10uM
Cc1ccc(CNC(=O)Cc2csc(Nc3nc(=S)[nH]c4ccccc34)n2)cc1	6.18%
CCN(CC)S(=O)(=O)c1ccc(F)cc1	-5.33%
Cc1ncc(C[n+]2csc(CCO)c2C)c(N)n1.Cl.[Cl-]	15.3%
O=C1C=C(c2cccc(Cl)c2)C[C@@H](c2ccc3c(c2)OCO3)C1	1.92%
CCOC(=O)CNC(=O)c1cccnc1.Cl	-0.177%
O=C(Cn1cccc1)N1CCc2ccccc21	3.12%
O=C1NN(c2ccccc2)C(=O)/C1=C\c1ccccc1OCC(=O)N1CCOCC1	1.33%
COCCNc1nc(N)c([N+](=O)[O-])c(NCC2CCCO2)n1 (stereo not drawn)	5.65%
CN(C(=O)CSc1nnc(Cc2ccccc2F)n1N)C1CCS(=O)(=O)C1 (stereo not drawn)	9.76%
CCOc1ccc(NC(=O)CN2CC(c3ccccc3)CC2=O)cc1 (stereo not drawn)	-19.9%
O=C(COC(=O)c1ccc2ccccc2n1)NC1CCCCC1	13.9%
COc1cc(/C=N/NC(=S)NC2CC3CC2C2C=CCC32)ccc1O (stereo not drawn)	-9.29%
O=C(CSc1nc2nc(-c3cccs3)cc(C(F)(F)F)c2c(=O)[nH]1)C(F)(F)F	-1.89%
C/C(=N\NC(=S)NCc1ccccc1)c1ccc2ccccc2c1OC(F)F	-17.5%
O=C(c1cnn2c(C(F)F)cc(-c3ccccc3)nc12)N1CCSCC1	-9.35%
Cc1ccc(N(CC(=O)N/N=C/c2cccs2)S(C)(=O)=O)cc1Cl	-6.46%
COc1ccc(NC(=O)CN(C)S(=O)(=O)c2ccc3c(c2)c(=O)n(C)c(=O)n3C)cc1	-9.53%
O=C(Nc1nncs1)C1c2ccccc2Oc2ccccc21	12.9%
Cc1cccn2c(=O)c(C=O)c(N3CCCCC3)nc12	-6.39%
CCC(C)[C@H](NC(=O)C1CC(=O)N(c2ccc3c(c2)OCCO3)C1)C(=O)NC1CCCC1 (stereo partly drawn)	26.6%
C=CCOC(=O)C1=C(C)Nc2nnnn2C1c1ccc(OC)cc1OC (stereo not drawn)	5.97%
O=S(=O)(Nc1ccc2c(c1)OCCO2)c1c(F)cccc1F	3.4%

SMILES	hERG current change (%, negative = inhibition) at 10uM
CCOc1ccc(-c2cc(C)[n+](CCN3CCOCC3)c(-c3ccc(OCC)cc3)c2)cc1.[O-][Cl+3]([O-])([O-])[O-]	-41.4%
C=CCC1(CC=C)CCCN1C(=O)CC1C(=O)NCCN1Cc1cccc(OC)c1OC (stereo not drawn)	1.62%
CCn1ncc(Br)c1C(=O)N(C)C12CC3CC(CC(C3)C1)C2	-9.56%
O=c1c(O[C@H]2O[C@@H](CO)[C@H](O)[C@@H](O)[C@@H]2O)c(-c2ccc(O)cc2)oc2cc(O)cc(O)c12	15.9%
CCn1c(COc2ccccc2C)nnc1SCC(=O)N1CCC(C)CC1	-24.2%
Cc1ccc(CCNC(=O)CNS(=O)(=O)c2ccc3nc(C)sc3c2)cc1	2.53%
Cc1cc(C(=O)NNC(=O)c2cccc(Cl)c2)no1	5.13%
CCNC(=O)c1c(NC(=O)C2COc3ccccc3O2)sc2c1CCCC2 (stereo not drawn)	17.6%
Cc1cccnc1NC(=S)Nc1ccc(F)cc1F	16%
CCCN(CCC)C(=O)Cn1c(=O)n(CCCCC(=O)NC2CCCC2)c(=O)c2ccccc21	-12.8%
Oc1ccc(Cl)c(Cl)c1	16.7%
C/C(=N/NC(=O)c1ccc(C(C)(C)C)cc1)c1cccnc1	-12.4%
O=C(O)c1sccc1OCc1ccccc1	13.4%
CCN(CC)C(=O)CSc1nc2sc3c(c2c(=O)n1CCCOC)CCC3	-22.6%
CCOC(=O)c1nn(-c2ccccc2C)c(=O)c(C#N)c1C	22.8%
Cc1cccc(NC(=O)CCN2C(=O)C3C4C=CC(C4)C3C2=O)c1 (stereo not drawn)	13.6%
Cc1sc2ncn(CC(=O)NCC(=O)N3CCN(c4ccc(F)cc4)CC3)c(=O)c2c1C	-12.5%
C=CCOc1ccc(/C(O)=C2/C(=O)C(=O)N(CCCn3ccnc3)C2c2cccs2)cc1 (stereo not drawn)	17%
COc1ccccc1NC(=O)C1CC(O)CN1C(=O)Oc1ccccc1 (stereo not drawn)	12.8%
Cc1cc(C)nc(SCc2c(F)cccc2Cl)n1	3.23%
CCN(CC)S(=O)(=O)c1cccc(C(=O)NC(C)C(c2cccs2)N2CCCC2)c1 (stereo not drawn)	-8.94%
CCc1ccc(NC(=S)NNC(=O)c2ccccc2OC(F)F)cc1	10.6%

SMILES	hERG current change (%, negative = inhibition) at 10uM
COc1cccc(C(=O)N2CCC(n3nccc3NC(=O)CCOc3ccccc3)CC2)c1	-0.0371%
O=C(CCNC(=O)N1CC(=O)Nc2ccccc21)NCc1ccc(F)cc1	19.5%
CCOC(=O)C(NCc1ccco1)(NC(=O)c1ccccc1)C(F)(F)F (stereo not drawn)	9.86%
O=C(Cn1[nH]c(=O)c2ccccc2c1=O)NCC1COc2ccccc2O1 (stereo not drawn)	-45%
CN(C)c1ccnc(NCc2ccccc2)c1C#N	-29.5%
Cl.O=C(CN1CCCCC1)c1ccc(F)cc1	1.94%
CN1C(=O)[C@H]2[C@@H](C3CC3)N3C(=O)CN(Cc4ccccc4)C(=O)[C@@]3(C)[C@H]2C1=O	-2.79%
O=S(=O)(NC1CCCC1)c1ccc(S(=O)(=O)N2CCc3ccccc32)cc1	-8.79%
O=C(O)C(=O)O.OCCNCCOc1ccccc1-c1ccccc1	-9.43%
CCCCCN(C(=O)CCC(=O)OC(C)C(=O)c1ccc(Cl)cc1)c1c(N)n(CCCC)c(=O)[nH]c1=O (stereo not drawn)	-18.2%
Cn1c(=O)[nH]c(=O)c2c1nc(CN1CCN(c3ccc(F)cc3)CC1)n2CCc1ccccc1	-27%
CN1C(=O)NC(NC(=O)c2ccco2)(C(F)(F)F)C1=O (stereo not drawn)	-2.74%
O=C(c1ccc(-c2ccccc2Cl)s1)N1CCOCC1	-14.4%
O=C(NNS(=O)(=O)c1ccc(Cl)cc1)c1cccc(S(=O)(=O)N2CCOCC2)c1	28%
CC(C)(C)c1ccc(OCC(=O)O/N=C(\N)c2ccncc2)cc1	4.08%
Cc1ccc(C)c(NS(=O)(=O)c2cc(C(=O)NCCSC3CCCCC3)ccc2C)c1	-4.71%
O=C1[C@@H]2Cc3ccccc3CN2C(=O)N1c1cccc(F)c1	-1.7%
O=C(c1cc2ccccc2oc1=O)N1CCCC1	19%
CCCNC(=O)c1ccc(Cn2cc(C(F)(F)F)ccc2=O)cc1	-0.62%
Cc1cccc(C(=O)N2CCN(Cc3nc4sc5c(c4c(=O)[nH]3)CCCC5)CC2)c1	-58.4%
C=CCNC(=S)N/N=C/c1ccc(-c2cccc([N+](=O)[O-])c2)o1	7.38%
Cc1ccc(C)c(S(=O)(=O)Nc2ccc(O)c(C(=O)O)c2)c1	12.2%

SMILES	hERG current change (%, negative = inhibition) at 10uM
Cc1ccc(C(=O)Cn2nnc(-c3ccccc3-n3cnnn3)n2)cc1	-0.628%
CC(NC(=O)C1CCCN(S(=O)(=O)N2CCOCC2)C1)c1ccccc1 (stereo not drawn)	15.8%
Cc1ccc(CNC(=O)COc2ccccc2-c2ccccc2)cc1	-4.61%
CN(C(=O)CC1C(=O)NCCN1Cc1ccoc1)C1CCOCC1 (stereo not drawn)	18.8%
O=c1c2ccccc2nc(-c2ccco2)n1-c1cccnc1	-5.18%
CCOc1ccc(C(C)NC(=O)Cc2ccccc2)cc1OCC (stereo not drawn)	11.4%
COc1ccccc1NC(=O)c1cc(Sc2nncn2C)nc2ccccc12	-14.7%
COc1cc(C(=O)Nc2sc3c(c2C(=O)NCc2ccco2)CCCC3)cc(OC)c1OC	13.6%
O=C(N/N=C/c1c(O)n(-c2cccc3ccccc23)c(=O)[nH]c1=O)c1ccncc1	3.58%
Cc1ccc(NC(=O)CSc2nc(=O)n(CCCN(C)C)c3c2CCC3)c(C)c1	-50.6%
CCOC(=O)c1c(C)n(Cc2ccccc2)c2ccc(OCC(O)Cn3nc(C)cc3C)cc12 (stereo not drawn)	10.8%
O=C(CCN1C(=O)S/C(=C\c2cccs2)C1=O)NC1=NCCS1	-10.6%
Cc1cc(NC(=O)CCC(=O)N(Cc2cccs2)C(C(=O)NC2CCCC2)c2ccncc2)no1 (stereo not drawn)	8.81%
Cc1c(NC(=O)Nc2cccc(F)c2)c(=O)n(-c2ccccc2)n1C	-1.4%
O=C(Nc1ccon1)c1ccc(F)c(S(=O)(=O)N2CCCCC2)c1	14%
O=c1[nH]c(=O)n(C2CCCCCC2)c(O)c1C=NC1CCN(Cc2ccccc2)CC1	-53.2%
CCN(CC)S(=O)(=O)c1ccc2c(c1)[nH]c(=S)n2CC	4.12%
Cc1cc(OCC(=O)Nc2nnc(C3CC3)s2)ccc1C(C)C	11.3%
CC(C)(C)C(=O)N1CCc2cc(-c3csc(N)n3)ccc21	-4.87%
COc1ccc(S(=O)(=O)N(Cc2ccccc2)c2ccccc2C(=O)O)cc1	31.8%
Cc1ccccc1-n1nc2c(c1NC(=O)c1ccc3c(c1)OCO3)CS(=O)(=O)C2	-17.6%
